Data from PubChem BioAssay AID1345083 (National Center for Advancing Translational Sciences (NCATS), 2018).
“And” between values parts separate entries of the source, which are not always exact repeats. Equal values may be shown once. The campaign covered roughly 94,000 compounds. About 6,200 (6.6%) were called active. Inconclusive means that the source gave no clear call. Such entries were picked first, then a sample of the others. The call rests on the fitted dose curve; in most records, active means well fitted inhibition curve with a large enough effect; inconclusive means small, poorly fitted or top-dose-only effect; inactive means flat fitted curve, though single readings scatter. Where the call is inconclusive, the potency comes from a doubtful curve fit.

Experiment: Cytotoxic Profiling in HEK 293 Cell Line of Diverse Libraries Using Quantitative High-Throughput Screening; further: nearly all actives have a fitted effect of over 60% in size
Conditions: HEK 293 viability, ATP luminescence (CellTiter-Glo), 48-72 h; activity change, negative = cytotoxicity: at 115 µM (top of the series) unless noted; series mostly up to 115 µM
Procedure, shortened: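 250 HEK 293 cells/well; compound by pintool; incubated 48 or 72 hr at 37 degree Celsius; CellTiter-Glo added, 10 min RT, luminescence imaged.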
On the % scale 0 is the no-effect control and ±100 the full control effect; potency means the concentration at half of the fitted maximal effect; tags describe the fitted curve by direction and shape.

Structure (SMILES)	Potency	activity change, negative = cytotoxicity	outcome
Cc1cccc(-c2nc(C3CC(=O)N(c4ccc(Cl)cc4)C3)no2)c1 (configuration not stated)	inconclusive: 89.1 µM [inhibitor, partial curve]		
CCOC(=O)[C@H]1[C@@H](O)C(=O)N(Cc2ccccc2)C12CCN(C(=O)N(C)C)CC2		inactive: -14.3%	
COc1ccc(Nc2ccc3c(n2)CN(Cc2ccccc2C)C(=O)CO3)cn1	active: 100 µM		
CC(C)(C)CN1CCOC[C@H]1c1ncc(-c2ccc(F)cc2)[nH]1	inconclusive: 100 µM [inhibitor, partial curve]		
COC1CCCN(c2ncccc2-c2cc(-c3ccccc3)nc3c(C)noc23)C1 (configuration not stated)	active: 79.4 µM		
O=C(COc1ccccc1)N1CCC(OCc2ccccc2)C1 (configuration not stated)	inconclusive: 89.1 µM [inhibitor, single point]		
N#Cc1ccc(CN2CC[C@H]3C(=O)NCCCCCCN(Cc4ccncc4)[C@@H]3C2)cc1	inconclusive: 50.1 µM [inhibitor, partial curve, poor fit]		
COC(=O)[C@@H]1Cc2ncn(Cc3ccccc3)c2CN1C(=O)CC(C)(C)C	inconclusive: 35.5 µM [inhibitor, partial curve]		
COc1ccccc1-c1ccc(CN2CCCCC2C(=O)NCc2ccc(C(F)(F)F)cc2)cc1 (configuration not stated)	inconclusive: 25.1 µM [inhibitor, full curve]		
O=C(C1CCCC1)N1CC2(CCN(Cc3ccc(Cl)cc3)C2)OCc2ccccc21 (configuration not stated)	inconclusive: 50.1 µM [inhibitor, partial curve, poor fit]		
O=C(NCC1CCCCC1)c1ccc2nc(-c3ccccn3)oc2c1	inconclusive: 79.4 µM [inhibitor, partial curve, poor fit]		
O=C(Cc1ccsc1)N1CC(Oc2ccccc2-c2nc(C3CC3)no2)C1	inconclusive: 56.2 µM [inhibitor, partial curve, poor fit]		
OCC1(CC2CC2)CCCN(Cc2ccc(C(F)(F)F)nc2)C1 (configuration not stated)	inconclusive: 50.1 µM [inhibitor, partial curve, poor fit]		
FC(F)(F)c1ccc(N2CCC(N[C@@H]3C[C@@H]4OCC[C@@H]43)CC2)nc1	inconclusive: 50.1 µM [inhibitor, partial curve, poor fit]		
Cc1noc(-c2ccccc2Cl)c1C(=O)NCc1cccc(F)c1F	inconclusive: 100 µM [inhibitor, partial curve, poor fit]		
COc1ccc(-c2noc(-c3nc(Cc4ccccc4)no3)n2)cc1OC	inconclusive: 50.1 µM [inhibitor, partial curve, poor fit]		
COc1ccccc1-c1ccc2c(C(=O)NCCc3ccc(F)cc3)nn(C)c2n1	inconclusive: 89.1 µM [inhibitor, single point]		
O=C(c1ccc(-c2cccc(O)c2)nc1)N1CCCN(c2ncccn2)CC1	inconclusive: 50.1 µM [inhibitor, partial curve, poor fit]		
CCC1CN(C(=O)c2ccc3nc(-c4ccccc4)cn3c2)CCN1C(C)C (configuration not stated)	inconclusive: 89.1 µM [inhibitor, single point]		
O=C(NCc1cccnc1)c1nc(-c2cccc(F)c2)c2cnccn12	inactive and inconclusive: 89.1 µM [inhibitor, single point]		
CC1(c2ccccc2)N(Cc2ccccc2)C(=O)OC12CCN(Cc1cccnc1N)CC2 (configuration not stated)	inconclusive: 50.1 µM [inhibitor, partial curve, poor fit]		

Structure (SMILES)	Potency	activity change, negative = cytotoxicity	outcome
CC(C)NC(=O)c1ccccc1OCC1CCCN(Cc2cncs2)C1 (configuration not stated)	inconclusive: 17.8 µM [inhibitor, single point]		
CN(C)c1nccnc1OC1CCN(C(=O)CCc2ccccc2)C1 (configuration not stated)	inconclusive: 39.8 µM [inhibitor, full curve, poor fit]		
Cc1oc2c(c1C(=O)NC1CCN(C)CC1)CN(C)CC2		inactive: 1.61%	
COc1ccc(CNC(=O)[C@@H]2C[C@@H](c3ccc(F)cc3)N(Cc3ccccc3)C2)cc1OC	inconclusive: 56.2 µM [inhibitor, partial curve, poor fit]		
CCN1C[C@H]2COc3cc(OC)ccc3[C@H]2N(C(=O)CC2CCCC2)CCC1=O		inactive: -8.1%	
Cc1noc([C@H]2CCN(C(=O)NCc3ccc(F)cc3)C[C@H]2NC(=O)C2CCOCC2)n1		inactive: -21.5%	
CC(C)N1CC[C@H](c2nc3ccc(C(F)(F)F)cc3[nH]2)C1	inconclusive: 112 µM [inhibitor, single point]		
COCc1ccc2c(c1)c(OC(C)(C)C(=O)Nc1ccn(C)n1)nn2CCC(C)C	inconclusive: 126 µM [inhibitor, single point]		
CN1CCC(O)(Cc2nc3c([nH]2)CC(C)(C)CNC3=O)CC1			inactive
CSc1ccc(-c2cccc(C(=O)NCC(=O)NCC(F)(F)F)c2)cc1	inconclusive: 39.8 µM [inhibitor, partial curve, poor fit]		
O=C1Nc2ccc(-c3ccc4c(c3)OCO4)cc2C(=O)N2C[C@@H](NS(=O)(=O)c3ccc(F)cc3)C[C@@H]12	inconclusive: 56.2 µM [inhibitor, partial curve, poor fit]		
COCc1ccc2c(c1)c(OC(C)(C)C(=O)N1CCN(CCO)CC1)nn2Cc1ccccc1			inactive
CC1(C)C(=O)N(CCOc2ccccc2)[C@H]2CN(c3cccc(C(F)(F)F)c3)C[C@@H]2[S+]1(=O)[O-]	active: 17.8 µM		
Cc1cc(C)c(-c2nc3ncccc3[nH]2)[nH]1	inconclusive: 141 µM [inhibitor, single point]		
O=C(c1ccc(C(F)(F)F)cc1)N1CCn2c(nn(-c3ccc(Cl)cc3)c2=O)C1	inconclusive: 89.1 µM [inhibitor, partial curve, poor fit]		
Cc1cc(F)ccc1OC1CN(C(=O)c2ccccn2)C1	inconclusive: 39.8 µM [inhibitor, partial curve, poor fit]		
COCCNc1cc(-c2noc([C@@H]3CCCN3CC(C)C)n2)ccn1	inconclusive: 100 µM [inhibitor, partial curve, poor fit]		
CC(C(=O)N1CCc2onc(-c3cccc4ccccc34)c2C1)n1ccnc1 (configuration not stated)	inconclusive: 89.1 µM [inhibitor, single point]		
O=C(c1ccc(C(F)(F)F)cc1)N1CCC2(C1)C(=O)N(c1ccccc1)c1ccccc12 (configuration not stated)	inconclusive: 79.4 µM [inhibitor, partial curve, poor fit]		
COc1ccc(CN2CCCC3(C2)C(=NC2CCCCC2)NC(=O)N3c2cc(F)cc(F)c2)cc1 (configuration not stated)	active: 44.7 µM		
CN1C(=O)C2(CCN(Cc3ccc(C(F)(F)F)cc3)C2)c2ccccc21 (configuration not stated)	inconclusive: 50.1 µM [inhibitor, partial curve, poor fit]		

Structure (SMILES)	Potency	activity change, negative = cytotoxicity	outcome
O=C(NCC1CN(C(=O)Cc2ccccc2)CC12CN(c1ccccc1)C2)C1CC1 (configuration not stated)		inactive: -6.46% [at 172 µM]	
CN1CCN(c2cc(=O)c3ccnc(Nc4ccc(F)c(Cl)c4)c3o2)CC1	inconclusive: 126 µM [inhibitor, single point]		
COc1ccc(C(=O)N2CCN(c3cc(-c4ccccc4)[nH]n3)CC2)c(OC)c1	inconclusive: 56.2 µM [inhibitor, partial curve, poor fit]		
COCC(=O)N1CC(C(=O)NCc2cccc(F)c2)CC(c2ccc(F)c(C)c2)C1 (configuration not stated)	inconclusive: 89.1 µM [inhibitor, single point]		
CS(=O)(=O)N1CCCC(C(=O)NCC2CCN(Cc3ccc(F)cc3)CC2)CCNC(=O)CC1 (configuration not stated)		inactive: 1.43%	
COc1ccc(F)cc1-c1ccc(CN)cc1	inconclusive: 126 µM [inhibitor, partial curve, poor fit]		
CCNc1cc(N2CCC(CCC(=O)Nc3cc(C)ccc3OC)CC2)ncn1	inconclusive: 50.1 µM [inhibitor, partial curve, poor fit]		
CCc1cccc(NC(=O)c2nnn3cc(C)[nH]c(=O)c23)c1		inactive: 4.64%	
COc1ccc(-c2cccc(C(=O)NCCc3ccccc3)c2)nn1		inactive: -20.1%	
CN(Cc1ccc(-c2ccccc2)cc1)C(=O)c1ccccc1Cl	inconclusive: 50.1 µM [inhibitor, partial curve, poor fit]		
COC(=O)[C@@H]1Cc2ncn(Cc3ccc(Cl)cc3)c2CN1S(=O)(=O)c1ccc(OC)cc1	inconclusive: 56.2 µM [inhibitor, partial curve, poor fit]		
O=C(Nc1ccccc1)N1CCCC1Cc1noc(-c2ccccc2)n1 (configuration not stated)	inconclusive: 63.1 µM [inhibitor, partial curve, poor fit]		
O=C1[C@@H]2C[C@@H](O)CN2C2(CN(Cc3c[nH]c4ccccc34)C2)C(=O)N1Cc1cccc(Cl)c1	inconclusive: 79.4 µM [inhibitor, partial curve, poor fit]		
COc1ccc2[nH]c3c(c2c1)CCNC31CCN(S(=O)(=O)c2cn(C)cn2)CC1	inconclusive: 28.2 µM [inhibitor, full curve]		
O=C(Nc1ccccc1)N1CCC2(CC1)C(=O)NCN2Cc1ccc(Cl)cc1		inactive: -18.5%	
CN(C)CCN(C)Cc1cn(Cc2ccccc2)nc1-c1ccc2c(c1)OCO2			inactive
Cc1cccc(CN2CCCCCCN(C)C(=O)[C@@H]3CCC[C@@H]32)c1	inconclusive: 12.6 µM [inhibitor, full curve, poor fit]		
CC(C)(C)c1ccc(-c2noc(CNC(=O)CN3C(=O)CNC3=O)n2)cc1		inactive: -0.757%	
CC(=O)Nc1cccc(C(=O)N2CC[C@@H](c3sccc3C)[C@H](O)C2)c1		inactive: -5.89%	
O=C1NCc2ccccc2CC12CCCN(Cc1ccc(F)c(Cl)c1)C2 (configuration not stated)	inconclusive: 79.4 µM [inhibitor, partial curve, poor fit]		
